{
  "source": "PubChem BioAssay AID1508623",
  "about": "(National Center for Advancing Translational Sciences (NCATS), 2021)",
  "note": "The whole screen tested about 48,000 compounds, of which about 450 (0.94%) were called active. The shares of active, inactive and inconclusive entries below differ from those in the screen. Calls follow the shape of the dose curve; as a rule, active = well fitted inhibition curve with a large enough effect; inconclusive = small, poorly fitted or top-dose-only effect; inactive = no such curve, though single readings can be large or run the other way. A potency beside an inconclusive call is a rough fit, not a confirmed value. Potency is read from the fitted curve at half-maximal effect; tags tell the direction and shape of the fitted curve.",
  "data": [
    {"test": "Primary qHTS for Identification of Small Molecule Inhibitors of Huntingtin Promoter Activity; also: nearly all actives have a fitted effect of over 50% in size", "settings": "HEK293 HTT promoter firefly luciferase reporter (activity 0% = vehicle and -100% = no light), 24 h; series mostly up to 57.5 µM", "summary_of_the_method": "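Luminescence was read after Dual-Glo reagent and a 10 min room-temperature incubation. Values were normalized to vehicle (0% activity) and zero RLU (-100% activity). Reporter HEK293 cells had been exposed to compounds (up to 57.5 uM final) for 24 h.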", "values": [
      {"smiles": "COc1ccc(CNc2ncnc3c2c(-c2ccccc2)cn3-c2ccc(C)c(Cl)c2)cc1", "Potency": "inconclusive: 17.8 µM [inhibitor, single point]"},
      {"smiles": "COc1cccc(C(=O)Nc2nc(-c3nnn(-c4cccc(Cl)c4C)c3C)ns2)c1", "Potency": "inconclusive: 31.6 µM [inhibitor, partial curve, poor fit]"},
      {"smiles": "O=C(NCCO)c1ccc(-c2nnc(Nc3ccc(OC(F)(F)Cl)cc3)c3ccccc23)cc1", "Potency": "inconclusive: 39.8 µM [inhibitor, single point]"},
      {"smiles": "O=C(Nc1cccc(C(F)(F)F)c1)Nc1cc(S(=O)(=O)NC2CC2)ccc1-c1ccsc1", "Potency": "inconclusive: 24.3 µM [inhibitor, partial curve, poor fit]"},
      {"smiles": "Cc1ccc(C)c(NC(=O)c2oc(=O)c3ccccc3c2-c2ccccc2)c1", "Potency": "inconclusive: 35.5 µM [inhibitor, single point]"},
      {"smiles": "Cc1ccc(-c2c(C(=O)Nc3ccccc3F)oc(=O)c3ccccc23)cc1", "Potency": "inconclusive: 25.1 µM [inhibitor, single point]"},
      {"smiles": "Cc1ccc(C)c(N2CCN(C(=O)Cn3cnc4nc5c(cc4c3=O)CCCC5)CC2)c1", "Potency": "inconclusive: 10 µM [inhibitor, partial curve, poor fit]"},
      {"smiles": "Cc1ccc(C)c(Cn2c(SCC(=O)NCc3ccccc3)nc3ccccc32)c1", "Potency": "inconclusive: 39.8 µM [inhibitor, single point]"},
      {"smiles": "CCOC(=O)c1cc(-c2ccccc2)n(-c2cccc(C(=O)NC(C)(C)C)c2)c1C", "Potency": "inconclusive: 31.6 µM [inhibitor, partial curve]"},
      {"smiles": "Cc1ccccc1C(=O)Nc1ccc(C(=O)N2CCCC(O)c3cc(Cl)ccc32)c(C)c1", "note": "(stereo unspecified)", "Potency": "inactive"},
      {"smiles": "CC[N+](CC)(CC)CCOc1ccc(/C=C/c2ccccc2)cc1", "Potency": "inconclusive: 22.4 µM [inhibitor, single point]"},
      {"smiles": "Cc1ccc(NS(=O)(=O)c2c(C)nc3sc(C)c(C)n3c2=O)cc1F", "Potency": "inconclusive: 39.8 µM [inhibitor, single point]"},
      {"smiles": "O=C(CSc1nc2ccsc2c(=O)n1-c1ccc(Br)cc1)NCc1ccc(Cl)cc1", "Potency": "inactive"},
      {"smiles": "COc1cccc(-c2nc(CS(=O)(=O)CC(=O)Nc3ccc(C)c(Cl)c3)c(C)o2)c1", "Potency": "inconclusive: 28.2 µM [inhibitor, single point]"},
      {"smiles": "COc1ccc(CCNC(=O)Cc2ccc(NC(=O)N3CCSc4ncccc43)cc2)cc1OC", "Potency": "inconclusive: 20 µM [inhibitor, partial curve, poor fit]"},
      {"smiles": "Cc1ccc2onc(CNC(=O)N3CCN(c4cc(Cl)ccc4C)CC3)c2c1", "Potency": "inconclusive: 25.1 µM [inhibitor, single point]"},
      {"smiles": "CC(CNC(=O)c1cc2cc(S(=O)(=O)N3CCCCC3)ccc2n1C)c1ccccc1", "note": "(stereo unspecified)", "Potency": "inconclusive: 14.1 µM [inhibitor, partial curve, poor fit]"},
      {"smiles": "COc1ccc(C(C)=O)cc1CSc1nc(NCc2ccccc2)c2ccccc2n1", "Potency": "inconclusive: 39.8 µM [inhibitor, single point]"},
      {"smiles": "Cc1ccc2c(c1)c(=O)c1ccccc1n2CCCC(=O)Nc1ccc(C)c(C)c1", "Potency": "inconclusive: 31.6 µM [inhibitor, partial curve, poor fit]"},
      {"smiles": "CC(C)OC(=O)c1ccc(NC(=O)CSc2nc(-c3cccs3)cc(C(F)(F)F)n2)cc1", "Potency": "inconclusive: 25.1 µM [inhibitor, single point]"},
      {"smiles": "CCOc1ccc(NC(=O)c2ccc3nc(C(C)C)oc3c2)cc1", "Potency": "inconclusive: 39.8 µM [inhibitor, single point]"},
      {"smiles": "COc1ccc(Cn2c(C(=O)O)c(CNCc3ccc(C)o3)c3ccc(OC)cc32)cc1", "Potency": "inactive"},
      {"smiles": "COc1ccccc1OC(C)C(=O)N1CCC(c2nc3ccccc3s2)CC1", "note": "(stereo unspecified)", "Potency": "inconclusive: 25.1 µM [inhibitor, partial curve]"},
      {"smiles": "Cc1ccc(-c2nc(Cn3c(SCc4ccc(F)cc4)nc4cccnc43)c(C)o2)cc1", "Potency": "inconclusive: 8.91 µM [inhibitor, partial curve, poor fit]"},
      {"smiles": "COc1ccc(C(=O)Nc2nonc2-c2ccc(OC)c(OC)c2)cc1Cl", "Potency": "inconclusive: 39.8 µM [inhibitor, single point]"},
      {"smiles": "CN(C)C(=O)C(CCN1CCC(O)(c2ccc(Cl)cc2)CC1)(c1ccccc1)c1ccccc1", "Potency": "inactive"},
      {"smiles": "CN[C@H]1[C@@H](O)[C@@H]2O[C@@H]3O[C@H](C)CC(=O)[C@]3(O)O[C@@H]2[C@@H](NC)[C@H]1O", "Potency": "inconclusive: 4.32 µM [inhibitor, full curve]"},
      {"smiles": "COc1ccc(CNc2ncnc3c2c(-c2ccccc2)cn3-c2cccc(C)c2)cc1", "Potency": "inconclusive: 31.6 µM [inhibitor, partial curve, poor fit]"},
      {"smiles": "COc1cccc(NC(=O)C2CCN(S(=O)(=O)c3c(C)noc3/C=C/c3cccs3)CC2)c1", "Potency": "inconclusive: 25.1 µM [inhibitor, partial curve, poor fit]"},
      {"smiles": "O=C(CSc1nccn1-c1ccc(F)cc1)Nc1cccc2ccccc12", "Potency": "inconclusive: 39.8 µM [inhibitor, single point]"},
      {"smiles": "CCN(CC)S(=O)(=O)c1ccc2c(c1)N(CC(=O)NCCCN1CCN(c3cc(C)ccc3C)CC1)C(=O)CO2", "Potency": "inconclusive: 35.5 µM [inhibitor, partial curve, poor fit]"},
      {"smiles": "CCNC(=O)C1CCCN(c2nn3cc(-c4ccc(C)cc4)nc3s2)C1", "note": "(stereo unspecified)", "Potency": "inconclusive: 0.251 µM [inhibitor, full curve, poor fit]"},
      {"smiles": "CCC(C)S(=O)(=O)c1oc(-c2ccc(F)cc2)nc1S(=O)(=O)c1ccc(F)cc1", "note": "(stereo unspecified)", "Potency": "inconclusive: 39.8 µM [inhibitor, single point]"},
      {"smiles": "CCOc1ccc(-n2nc3ccc(NC(=O)COc4ccccc4)cc3n2)cc1", "Potency": "inconclusive: 0.562 µM [inhibitor, full curve, poor fit]"},
      {"smiles": "O=C(CN1C(=O)CCc2cc(S(=O)(=O)N3CCOCC3)ccc21)Nc1cccc(C(F)(F)F)c1", "Potency": "inconclusive: 39.8 µM [inhibitor, single point]"},
      {"smiles": "COc1ccc(NC(=O)CNC(=O)Cn2c(C)cc3ccccc3c2=O)cc1OC", "Potency": "inconclusive: 17.8 µM [inhibitor, partial curve, poor fit]"},
      {"smiles": "CCCCN1C(C(=O)c2ccccc2)=C(OC(C)=O)c2ccccc2S1(=O)=O", "Potency": "inconclusive: 12.6 µM [inhibitor, partial curve]"},
      {"smiles": "CCCCN(CCCC)C1=C(C(=O)c2ccccc2)N(C)S(=O)(=O)c2ccccc21", "Potency": "inconclusive: 39.8 µM [inhibitor, single point]"},
      {"smiles": "Cc1ccccc1CNC(=O)CN(c1cccc(C)c1C)S(C)(=O)=O", "Potency": "inactive"},
      {"smiles": "CCOc1ccc(N(CC)S(=O)(=O)N2CCCC(C(=O)Nc3cc(Cl)ccc3OC)C2)cc1", "note": "(stereo unspecified)", "Potency": "inconclusive: 15.8 µM [inhibitor, single point]"},
      {"smiles": "COc1ccc(CNS(=O)(=O)c2ccc(-c3cnc(C4CC4)o3)cc2)cc1", "Potency": "inconclusive: 31.6 µM [inhibitor, single point]"},
      {"smiles": "COc1ccc(Nc2ncc(C(=O)N3CCN(c4ccc(F)cc4)CC3)c3ccccc23)cc1", "Potency": "inconclusive: 28.2 µM [inhibitor, single point]"},
      {"smiles": "CCN(CC)CCNC(=O)c1c(C)[nH]c(/C=C2\\C(=O)Nc3ccc(F)cc32)c1C", "Potency": "inconclusive: 8.91 µM [inhibitor, partial curve, poor fit]"},
      {"smiles": "COc1ccccc1NC(=O)CSC1=Nc2ccccc2C2=NC(CCC(=O)NCc3cccs3)C(=O)N12", "note": "(stereo unspecified)", "Potency": "inconclusive: 39.8 µM [inhibitor, single point]"},
      {"smiles": "Oc1ccc(/C=C/c2cc(O)cc(O)c2)cc1", "Potency": "inactive"},
      {"smiles": "Cc1ccc(N(CC(=O)Nc2cccc(Cl)c2)S(=O)(=O)c2cccs2)cc1", "Potency": "inconclusive: 39.8 µM [inhibitor, single point]"},
      {"smiles": "CCN(Cc1ccccc1)S(=O)(=O)c1ccc2c(c1)CC(C)N2C(=O)C1CCC1", "note": "(stereo unspecified)", "Potency": "inconclusive: 28.2 µM [inhibitor, partial curve, poor fit]"},
      {"smiles": "CCOc1ccc(OCC)c(NS(=O)(=O)c2ccc(-c3coc(C)n3)cc2)c1", "Potency": "inconclusive: 11.2 µM [inhibitor, partial curve]"},
      {"smiles": "COc1ccc(NC(=O)c2c(NC(=O)c3ccc(Br)cc3)sc3c2CCCC3)cc1", "Potency": "inconclusive: 22.4 µM [inhibitor, single point]"},
      {"smiles": "Cn1cc(S(=O)(=O)N2CCOCC2)cc1C(=O)Nc1ccc(Cl)c(C(F)(F)F)c1", "Potency": "inconclusive: 20 µM [inhibitor, single point]"},
      {"smiles": "COc1cc(NC(=O)c2cn(C3CCCC3)c(=O)c3c2c2ccccc2n3C)cc(OC)c1OC", "Potency": "inconclusive: 39.8 µM [inhibitor, single point]"},
      {"smiles": "CCOc1ccc(CNS(=O)(=O)c2ccc(-c3coc(C)n3)cc2)cc1", "Potency": "inconclusive: 28.2 µM [inhibitor, single point]"},
      {"smiles": "COc1ccc(N2CCN(CCCNC(=O)Cn3c(-c4cccs4)cc4ccccc43)CC2)cc1", "Potency": "inconclusive: 22.4 µM [inhibitor, single point]"},
      {"smiles": "Cc1nc2ccc(S(=O)(=O)N(C)CC(=O)Nc3cccc(C(F)(F)F)c3)cc2s1", "Potency": "inconclusive: 25.1 µM [inhibitor, single point]"},
      {"smiles": "COc1ccc(N(C(=O)c2cccc(C)c2)S(=O)(=O)c2ccc(Cl)cc2)cc1", "Potency": "inconclusive: 31.6 µM [inhibitor, partial curve, poor fit]"},
      {"smiles": "O=C(C1CCCN(S(=O)(=O)c2cccc3nsnc23)C1)N1CCN(c2ccccc2Cl)CC1", "note": "(stereo unspecified)", "Potency": "inconclusive: 28.2 µM [inhibitor, single point]"}
    ]}
  ]
}
